Laboratory results from paper PMC12040169 (PLOS Biology, 2025).
The other results are listed elsewhere or left out.

tested on: T1, C. trachomatis L2/434/Bu expressing GFP (CTL2-GFP); design: species or system HeLa; C. trachomatis total inclusion area by high-content imaging, normalised to DMSO; settings: total inclusion area; 28.5 h, 10 µM; inhibitor
T1 construct: L2/434/Bu GFP intracellular growth in HeLa cells
Method in brief: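 Imaging read-out: GFP inclusions and Hoechst nuclei captured by high-content imaging after fixation. Inclusion area/number = chlamydial growth; nuclei count = host cell viability. MIC calculated per earlier method.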

Structure (SMILES) | % of control remaining
Fc1ccc(COc2ccc(Cl)cc2CNCc2ccccn2)cc1 [CBK269899C] | 97.2005
COC(=O)CCSc1nc(C)nc2c1c(=O)n(C)c(=O)n2CC(C)C [CBK305891] | 31.048
CN(C)c1ccc(-c2noc([C@@H]3CCCN3C)n2)cn1 [CBK288902] | 99.3908
CC(NC(=O)CCc1cn(C)c2ccccc12)c1ccccn1 (centres unmarked) [CBK281889] | 80.3094
CCN(CC)S(=O)(=O)c1csc(C(=O)Nc2cccc([N+](=O)[O-])c2)c1 [CBK264505] | 109.766
Cc1cc(=O)oc2cc(OC(=O)C(Cc3ccccc3)N3C(=O)c4ccccc4C3=O)ccc12 (centres unmarked) [CBK033943] | 97.3804
COC(=O)c1ccc(NC(=O)CN(c2ccc(F)c(Cl)c2)S(C)(=O)=O)cc1 [CBK267657] | 88.7488
Cc1cccc(-n2c(C#N)c(O)c3ccccc32)c1C [CBK115319] | 89.1827
COc1ccc(C(NC(=O)Cn2cccnc2=O)C2CC(O)C2)cn1 (centres unmarked) [CBK307527] | 64.1332
Cc1ccccc1OCCNS(=O)(=O)c1cccc([N+](=O)[O-])c1 [CBK264195] | 126.912
CC(=O)Nc1cc(Cl)ccc1OS(=O)(=O)c1ccc(Cl)cc1 [CBK264992] | 88.9608
COC(=O)c1ccccc1NC(=O)CNS(=O)(=O)c1ccc(C)cc1 [CBK266000] | 128.538
COc1ccc(CC(=O)NC(CCSC)c2nc3ccccc3[nH]2)cc1 (centres unmarked) [CBK306050] | 37.989
O=C(O)c1nn(-c2ccccc2)c2cc([N+](=O)[O-])ccc12 [CBK006532] | 80.2104
COc1cc(/C=C2\SC(=S)N(CC(=O)NNC(=O)c3ccccc3O)C2=O)ccc1O [CBK261301] | 96.9725
CN(C)CCNC(=O)c1ccc(-c2ccccc2S(=O)(=O)Nc2ccc(C(=O)O)c(O)c2)cc1 [CBK174050] | 71.9287
Cc1cc(C)n(C(C)CNC(=O)c2cc(C3CC3)on2)n1 (centres unmarked) [CBK283243] | 115.444
Cc1ccc(S(=O)(=O)NCCSCc2ccc(Cl)cc2)cc1[N+](=O)[O-] [CBK264056] | 93.1244
O=S(=O)(c1cccc(F)c1)N1CCC(Cc2ccccc2)CC1 [CBK044828] | 94.8203
COc1ccc(CCNCC2OCCc3cccc(OC)c32)cc1OC (centres unmarked) [CBK024032C] | 63.9243
CCOc1ccccc1CN(C)c1cc(C2CC(N)C2)nc(N)n1 (centres unmarked) [CBK307308] | 31.8636
OCCN(CCO)c1cncc(-c2cccc3ccccc23)n1 [CBK065812] | 84.6497
O=C(O)CCc1ccc(-c2ccc(F)cc2)n1CC1CCCO1 (centres unmarked) [CBK268988] | 109.034
Cc1ccccc1NC(=O)Nc1ccc(OCc2ccccc2)cc1 [CBK262861] | 94.3948
Cc1cc(/C=N/NC(=O)C(=O)NCc2ccccn2)c(C)n1-c1cccc(Br)c1 [CBK263815] | 107.562

Structure (SMILES) | % of control remaining
CC(C)(C)OC(=O)NC1CCC(NCc2ccccc2Br)CC1 (centres unmarked) [CBK056684] | 98.8013
CSCC(=O)N1C[C@@H]2C[C@H](C1)c1c(-c3ccc(NC(C)=O)cc3)ccc(=O)n1C2 [CBK289200] | 106.39
Nc1cccc(-c2nc(NC(=O)c3ccncc3)cnc2-c2ccc(F)c(Cl)c2)c1 [CBK037573] | 76.075
COc1cccc(-c2csc(NS(=O)(=O)c3ccc(C)c(C(=O)O)c3)n2)c1 [CBK299803] | 39.6921
CN(C)C(=O)[C@@]1(O)CCC2(c3ccc(Cl)cc3)CCCN(C)C2C1 (some centres unmarked) [CBK005234] | 10.4253
CCCCSc1nnc(-c2cc3c(C(F)(F)F)nn(C)c3s2)n1C [CBK019526] | 77.2494
CC1=C[C@@H](CNS(C)(=O)=O)[C@H](C(C)C)C[C@H]1CC(=O)N1CCOCC1 [CBK289050] | 108.007
CC(C)C(=O)Nc1cc2cccnc2nc1-c1ccccc1 [CBK073647] | 117.257
Nc1nc(O)cc(C2CCN(CCOc3ccccc3F)C2)n1 (centres unmarked) [CBK304726] | 54.9541
O=C1N=C(Nc2cccc(O)c2)S/C1=C1\C(=O)Nc2ccccc21 [CBK265549] | 89.1234
O=C(NCCCn1ccnc1)c1cc(-c2ccc(Br)cc2)nc2ccccc12 [CBK262645] | 19.0204
Cc1nn(CC(=O)N2CCCC2)c(=O)c2cc3ccsc3n12 [CBK284057] | 104.849
Nc1ncc(-c2cncnc2)nc1NCC1CCOCC1 [CBK063877] | 134.353
Cc1cc(CN2CCN(C(C)c3nc(C(C)(C)C)no3)CC2)no1 (centres unmarked) [CBK305641] | 113.015
CCn1c(CC2CCN(c3nc(C)cc(C)c3C#N)CC2)nn(C)c1=O [CBK307027] | 72.389
O=C(O)C[C@]1(C(=O)NC2CCCCCC2)CC(c2ccc(Cl)cc2)=NO1 [CBK286716] | 66.4287
Oc1cccc(C(O)CNCc2ccc(OCc3ccc(Cl)cc3Cl)cc2)c1 (centres unmarked) [CBK267621C] | 72.1909
Nc1ccc(-c2ncccc2O)cc1 [CBK262937C] | 87.4735
CNS(=O)(=O)c1ccc(C)c(C(=O)N(C)Cc2cnn(C)c2)c1 [CBK304026] | 63.5229
COc1ccc(F)cc1S(=O)(=O)N1CCCN(S(=O)(=O)c2cc(F)ccc2OC)CC1 [CBK266555] | 101.834
C[C@@H](c1ccccc1)N1C(=O)[C@@H]2CN(C(=O)COCC(=O)O)CCN2C1=O [CBK289636] | 130.31
Cc1cc(C)n(CCC(=O)N2CCC(c3ccncc3)CC2)n1 [CBK283529] | 93.173
CCc1c(C)nc2c(C(=O)N3CCCC3COC)cnn2c1C (centres unmarked) [CBK162146] | 70.0476
COc1ccc(OC(C)C(=O)O/N=C(\N)c2ccccn2)cc1 (centres unmarked) [CBK266669] | 119.072
CCN(CC)C(=O)CNS(=O)(=O)c1ccc(OC)c(OC)c1 [CBK034499] | 85.4974
